# Measured values as given in patent EP4763865A1 (Minghui Pharmaceutical (Hangzhou) Limited, dated 2026).
# Tests used:
# [1] = target: T1, human c-MET on Hs746T human gastric cancer cells (human, UniProt P08581); assay: flow cytometry on Hs746T cells, 4-parameter fit
# T1 construct: whole, on cells; Endogenous expression on Hs746T cells; also called human c-MET antigen on the surface of tumor cells
# [2] = target: T1, human c-MET on Hs746T human gastric …; assay: cell-based or functional assay
# [3] = target: T2, Rat c-MET Protein, hFc Tag (Sino Biological, Cat. No. 80004-R02H) (rat, UniProt P97523 25-935); assay: ELISA, coated antigen, anti-camelid VHH HRP detection
# T2 construct: not shown: hFc tag
# [4] = target: T3, Mouse c-MET Protein, His Tag (Sino Biological, Cat. No. 50622-M08H) (mouse, UniProt P16056 25-929); assay: ELISA, coated antigen
# T3 construct: not shown: His tag
# [5] = target: T1, human c-MET on Hs746T human gastric …; assay: flow cytometry on Hs746T cells, PE secondary antibody, 4-parameter fit
# [6] = target: T4, Human c-MET, His Tag (Sino Biological, Cat. No. 10692-H08H) (human, UniProt P08581 25-932); assay: ELISA, coated human c-MET His Tag, 4-parameter fit
# T4 construct: also called human c-MET antigen; not shown: His tag
# [7] = target: T1, human c-MET on Hs746T human gastric …; assay: cell-based or functional assay; remark: listed apart in the source
# [8] = target: T1, human c-MET on Hs746T human gastric …; assay: flow cytometry on Hs746T cells, 4-parameter fit; remark: listed apart in the source
Bottom [1] [MFI],EC50 [1] [µg/mL],Top [1] [MFI],EC50 [5] [µg/mL],EC50 [6] [ng/mL],EC50 [8] [µg/mL],Binder,"Fab-ZAP endocytosis-mediated cell killing, Bottom (killing rate %) [2] [%]","Fab-ZAP endocytosis-mediated cell killing, EC50 [2] [pM]","Fab-ZAP endocytosis-mediated cell killing, Top (killing rate %) [2] [%]",binding result [3],binding result [4],"Fab-ZAP endocytosis-mediated cell killing, EC50 [7] [pM]"
2330,0.0777,165000,–,–,–,MHAB07-3-1 (Fc fusion) QLQLVESGGGLVQPGGSLRLSCAASGRITNTYVMGWVRQAPGKEREFQAAITWTVGSTYYVDSVKGRFTISRDNAKNTLYLQMNSLRPEDTAVYYCAASRFSAWPPRGTLGEWNSWGQGTQVTVSS[human IgG1 Fc with changes not shown],9.62,1.95,94.4,–,–,–
1760,0.0829,158000,0.0642,–,–,MHAB07-3-2 (Fc fusion) QLQLVESGGGLVQPGGSLRLSCAASGRITNTYVMGWVRQAPGKEREFVAAITWTVGSTYYVDSVKGRFTISRDNAKNTLYLQMNSLRPEDTAVYYCAASRFSAWPPRGTLGEWNSWGQGTQVTVSS[human IgG1 Fc with changes not shown],16.2,2.63,95.9,no binding (tested: initial concentration 10 µg/mL),no binding (tested: initial concentration 10 µg/mL),–
2170,0.0623,173000,0.0722,0.789,41.2,"MHAB07-3 (Fc fusion, also called MHAB07-03) QLQLVESGGGLVQAGGSLRLSCAASGRITNTYVMGWFRQAPGKERELQAAITWTVGSTYYVDSVKGRFTISRDNAKNTLYLQMNSLKPEDTAVYYCAASRFSAWPPRGTLGEWNSWGQGTQVTVSS[human IgG1 Fc with changes not shown]",8.79,2.5,93.8,–,–,~17.4

# Like-named read-outs stand apart in the source and are kept apart here.
